Laboratory results taken from publication PMC6919601, “Identification of Plasmodium dipeptidyl aminopeptidase allosteric inhibitors by high throughput screening” (PLoS ONE, 2019).
Out of some 110,000 compounds screened, about 230 (0.21%) showed an effect of 50% or more. The list shows a part of the results.

Biological target: DPAP1 (Plasmodium falciparum, UniProt Q8IIJ9)
Experiment: primary screen, percent inhibition; read by cleavage of a fluorogenic dipeptide substrate; higher = more effect of the substance
Design: species or system P. falciparum D10 trophozoite lysates; single well
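Further: 30 min substrate incubation versus DMSO and 10 µM JCP410 controls.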

Chain of DPAP1 (Q8IIJ9 whole entry, looked up): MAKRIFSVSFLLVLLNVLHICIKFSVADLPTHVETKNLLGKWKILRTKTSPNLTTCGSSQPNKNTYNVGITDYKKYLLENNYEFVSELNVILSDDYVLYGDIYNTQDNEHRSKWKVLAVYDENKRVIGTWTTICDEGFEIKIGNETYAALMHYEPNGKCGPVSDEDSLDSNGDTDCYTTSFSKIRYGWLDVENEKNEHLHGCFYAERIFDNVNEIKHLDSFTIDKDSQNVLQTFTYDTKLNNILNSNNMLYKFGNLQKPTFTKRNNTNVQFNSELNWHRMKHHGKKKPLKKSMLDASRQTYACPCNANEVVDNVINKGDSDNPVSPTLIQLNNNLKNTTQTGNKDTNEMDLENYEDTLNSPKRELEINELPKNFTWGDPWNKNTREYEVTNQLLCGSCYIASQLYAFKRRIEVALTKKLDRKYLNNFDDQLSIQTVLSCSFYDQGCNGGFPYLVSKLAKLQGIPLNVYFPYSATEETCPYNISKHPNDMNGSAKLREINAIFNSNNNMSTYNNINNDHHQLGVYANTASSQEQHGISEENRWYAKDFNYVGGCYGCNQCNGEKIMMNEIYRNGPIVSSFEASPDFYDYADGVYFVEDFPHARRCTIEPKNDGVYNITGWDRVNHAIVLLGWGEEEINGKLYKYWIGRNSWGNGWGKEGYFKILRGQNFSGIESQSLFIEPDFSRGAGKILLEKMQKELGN

| SMILES | % Inhibition @ 10 uM [%] |
| --- | --- |
| Cc1ccc(NCN2C(=O)C3CC=CCC3C2=O)c(C)c1 (stereo not drawn) | 2.44 |
| O=C(N/C(=C/c1ccc(F)cc1)C(=O)N1CCCC1C(=O)O)c1ccccc1 (stereo not drawn) | -0.366 |
| O=C1C2C3c4ccccc4C(c4ccccc43)C2C(=O)N1c1ccccc1[N+](=O)[O-] (stereo not drawn) | -6.25 |
| Cc1nn(CCCC(=O)NCCC2=CCCCC2)c(=O)c2nccn12 | -1.6 |
| CCn1cc(CCCC(=O)NCCN2CCN(C)CC2)c2ccccc21 | 1.47 |
| C=CCOc1ccc(C2C(C#N)=C(N)Oc3c2ccc2ccccc32)cc1OC (stereo not drawn) | 0.385 |
| C=C1c2cc(CC)ccc2NC(=O)N1CC | -8.64 |
| CCOCCCNC(=O)C1CCN(C(=O)c2cc3sccc3n2CC)CC1 | 1.8 |
| Fc1ccccc1N1CCN(C2CCC(c3ccccc3)CC2)CC1 (stereo not drawn) | 3.19 |
| COc1ccc(C2C(C#N)=C(N)Oc3[nH]nc(-c4cccs4)c32)c(OC)c1OC (stereo not drawn) | -1.06 |
| CCCCCCC(=O)N1c2ccccc2C(N(C(=O)c2ccc(F)cc2)c2ccccc2)CC1C (stereo not drawn) | 5 |
| CCn1c(-c2ccc(Cl)cc2)cs/c1=N\c1ccc(O)cc1 | -8.06 |
| CN1CCN(C(=O)Nc2cn(C)c(=O)c3ccccc23)CC1 | 1.91 |
| COc1ccc(CN2CCN(Cc3cccc(Cl)c3)CC2)c(OC)c1 | -2.22 |
| Cc1ccc(S(=O)(=O)CCc2nnc(NC(=O)c3ccccc3)s2)cc1 | -2.27 |
| CCCCNC(=O)c1cc(-c2ccccc2)nc2c(C)cccc12 | 2.79 |
| Cc1ccc(C(=O)NCCNC(=O)CN2CCOCC2)cc1 | 0.408 |
| CCc1nnc(NS(=O)(=O)c2ccc(NC(C)=O)cc2)s1 | -2.47 |
| N#Cc1nc(-c2ccccc2)oc1NCc1ccccc1 | -0.0267 |
| COCCNC(=O)c1ccc2c(c1)nc(C)n2-c1cc(OC)c(OC)c(OC)c1 | -0.458 |
| Cc1c(CNC2CCCC2)c(C(=O)O)c(C)n1Cc1ccc(F)cc1 | -3.67 |

| SMILES | % Inhibition @ 10 uM [%] |
| --- | --- |
| N#CC1=C(N)N(c2ccccc2F)C2=C(C(=O)CCC2)C1c1ccc(Cl)cc1 (stereo not drawn) | -2.8 |
| O=C(Cn1cnc2c(oc3ccccc32)c1=O)NCc1ccco1 | -10 |
| CCCCN(C(=O)c1cc2c(s1)-c1ccccc1OC2)C1CCN(C(C)=O)CC1 | 1.89 |
| COc1ccccc1C(=O)Nc1ccc(Oc2ccc(C(=O)O)c(C(=O)O)c2)cc1 | -1.57 |
| COc1cc(CN2CCCCCC2)cc(OC)c1OC | -7.49 |
| COc1cccc(-c2cc(C(=O)Nc3ccc(C(C)=O)cc3)c3ccccc3n2)c1 | 5.73 |
| CCOC(=O)C1=C(CS(=O)(=O)c2ccccc2)NC(=O)NC1c1ccc(C(C)C)cc1 (stereo not drawn) | -3.94 |
| Cc1ccc(S(=O)(=O)NC2=NC(=O)CC(c3ccc(Cl)cc3)N2)cc1 (stereo not drawn) | 10.6 |
| NC(=O)C1(N2CCCCC2)CCN(CC(=O)Nc2ccc(Oc3ccccc3)cc2)CC1 | 7.48 |
| CC(C)(C)C(=O)Nc1ccc(C(=O)Nc2ccc(Cl)cc2)cc1 | 6.43 |
| O=C1CC(c2ccccc2F)NC(NC(=O)c2cccc(Cl)c2)=N1 (stereo not drawn) | 0.0654 |
| COc1ccccc1C1C(C(C)=O)=C(C)N=c2s/c(=C\c3ccc(OC)c4ccccc34)c(=O)n21 (stereo not drawn) | -9.97 |
| COc1ccccc1CNC(=O)CCn1nc(-c2ccccc2)ccc1=O | -0.0542 |
| O=[N+]([O-])c1cccc(-c2nc(-c3ccccc3)no2)c1 | -2.86 |
| COc1ccc(Br)cc1C1CC(=O)C(C)C(c2cc(Br)ccc2OC)N1 (stereo not drawn) | 3.33 |
| CCN1CCN(CCCc2ccccc2)CC1 | -3.57 |
| Cn1cc(CCCC(=O)NCCN2CCOCC2)c2ccccc21 | -1.67 |
| N#CCNC(=O)[C@H](CS(=O)(=O)Cc1c(F)c(F)c(F)c(F)c1F)NC(=O)c1ccccc1 | -3.49 |
| O=C(NCCC1=CCCCC1)C1CCCN(S(=O)(=O)N2CCC3(CC2)OCCO3)C1 (stereo not drawn) | 0.335 |
| CNc1nc(N2CCOCC2)nc(N(c2ccccc2)c2ccccc2)n1 | -1.59 |
| CCCCOc1ccc(CNC(=O)NS(=O)(=O)c2ccc(OCC(C)C)cc2)cc1 | 6.5 |

| SMILES | % Inhibition @ 10 uM [%] |
| --- | --- |
| Cc1ccccc1Cn1c(-c2cccs2)noc1=O | -0.696 |
| Cc1ccc(NC(=O)CCSc2ccc(Cl)cc2)cc1 | -0.511 |
| CCN1CCN(C(=O)CS(=O)Cc2nc(-c3ccc(OC)c(OC)c3)oc2C)CC1 (stereo not drawn) | -4.71 |
| COc1ccc(S(=O)(=O)Nc2ccc3c(c2)OCO3)c(Cl)c1Cl | 2.95 |
| CCOC(=O)C1=C(CC)OC(N)=C(C#N)C1c1ccc(F)c(F)c1 (stereo not drawn) | -0.771 |
| CCN(CC)CCCNC(=O)CCNC(=O)Cn1ccc2ccccc2c1=O | -5.87 |
| CCOc1ccc(C2OC(=O)Cc3cc(OC)c(OC)cc32)cc1 (stereo not drawn) | -6.88 |
| c1ccc(-c2ccc(-c3nc(-c4ccncc4)no3)cc2)cc1 | 1.4 |
| COc1cc(-c2nc3s/c(=C\c4ccccc4Cl)c(=O)n3n2)cc(OC)c1OC | 0.561 |
| C=CCN1C(=O)S/C(=C/c2ccc(C#N)cc2)C1=O | 2.93 |
| O=C(C1=C(O)C(=O)N(Cc2cccnc2)C1c1cccc(Oc2ccccc2)c1)c1cccs1 (stereo not drawn) | 2.17 |
| O=C(Cc1ccccc1)n1nc(-c2ccco2)nc1NCc1cccs1 | -6.98 |
| COC(=O)c1cc(=O)n(Cc2cccs2)/c(=N/Cc2cccs2)s1 | -1.7 |
| CC(NC(=O)Cn1c(=O)c2cccn2c2cccnc21)c1ccccc1 (stereo not drawn) | -6.92 |
| CCc1cccc(C)c1NC(=O)c1ccc(OC)c(OC)c1 | -0.564 |
| Cc1c(C(=O)O)c2cc(O)c(Br)cc2n1C1CCCCCC1 | -4.04 |
| O=C(NC1CCN(Cc2ccccc2)CC1)C1CCN(S(=O)(=O)c2cccc3nonc23)CC1 | 1.76 |
| CC(NC(=O)c1cccnc1)C(c1cccs1)N1CCN(Cc2ccccc2)CC1 (stereo not drawn) | 0.66 |
| COCC(C)NC(C)Cc1ccc(F)cc1 (stereo not drawn) | -5.31 |
| CCOC(=O)C1CCCN(Cc2c(Cl)cccc2Cl)C1 (stereo not drawn) | -2.34 |
| COc1ccc(C2C(C(C)=O)=C(O)C(=O)N2c2ccc(C)c(Br)c2)c(OC)c1 (stereo not drawn) | -5.27 |
